# Reference: publication PMC5749825
# The chains behind the UniProt entries cited, without tags or fusion partners.
# UniProt Q93009: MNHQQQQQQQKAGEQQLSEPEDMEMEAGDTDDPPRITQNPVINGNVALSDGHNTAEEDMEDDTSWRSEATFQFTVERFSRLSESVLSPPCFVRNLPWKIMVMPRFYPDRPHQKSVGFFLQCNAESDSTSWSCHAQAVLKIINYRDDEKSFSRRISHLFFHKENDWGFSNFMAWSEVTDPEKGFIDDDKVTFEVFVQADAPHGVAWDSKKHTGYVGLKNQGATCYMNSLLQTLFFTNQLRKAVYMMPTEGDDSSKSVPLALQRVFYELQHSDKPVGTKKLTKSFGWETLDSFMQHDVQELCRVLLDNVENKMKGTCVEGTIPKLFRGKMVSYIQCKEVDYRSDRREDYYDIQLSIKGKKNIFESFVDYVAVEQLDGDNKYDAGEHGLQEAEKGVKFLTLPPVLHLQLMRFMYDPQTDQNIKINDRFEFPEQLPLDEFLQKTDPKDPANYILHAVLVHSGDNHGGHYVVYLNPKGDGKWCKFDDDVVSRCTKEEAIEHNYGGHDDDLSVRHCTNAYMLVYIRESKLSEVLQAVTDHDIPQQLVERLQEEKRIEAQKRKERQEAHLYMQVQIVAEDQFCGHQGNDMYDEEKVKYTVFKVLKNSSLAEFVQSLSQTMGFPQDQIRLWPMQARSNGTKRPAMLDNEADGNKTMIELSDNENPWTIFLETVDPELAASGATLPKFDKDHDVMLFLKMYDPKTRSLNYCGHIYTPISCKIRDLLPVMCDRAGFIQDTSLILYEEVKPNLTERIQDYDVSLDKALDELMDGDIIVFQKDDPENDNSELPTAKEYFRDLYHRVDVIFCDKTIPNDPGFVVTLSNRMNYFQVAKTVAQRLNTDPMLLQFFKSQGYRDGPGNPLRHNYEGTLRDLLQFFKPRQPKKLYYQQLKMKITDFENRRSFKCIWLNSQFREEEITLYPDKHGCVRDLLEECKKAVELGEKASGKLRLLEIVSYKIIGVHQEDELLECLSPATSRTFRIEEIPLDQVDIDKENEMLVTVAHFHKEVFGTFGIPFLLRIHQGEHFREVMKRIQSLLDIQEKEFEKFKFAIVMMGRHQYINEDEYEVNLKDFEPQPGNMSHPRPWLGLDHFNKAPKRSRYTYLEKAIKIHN
# UniProt P51784: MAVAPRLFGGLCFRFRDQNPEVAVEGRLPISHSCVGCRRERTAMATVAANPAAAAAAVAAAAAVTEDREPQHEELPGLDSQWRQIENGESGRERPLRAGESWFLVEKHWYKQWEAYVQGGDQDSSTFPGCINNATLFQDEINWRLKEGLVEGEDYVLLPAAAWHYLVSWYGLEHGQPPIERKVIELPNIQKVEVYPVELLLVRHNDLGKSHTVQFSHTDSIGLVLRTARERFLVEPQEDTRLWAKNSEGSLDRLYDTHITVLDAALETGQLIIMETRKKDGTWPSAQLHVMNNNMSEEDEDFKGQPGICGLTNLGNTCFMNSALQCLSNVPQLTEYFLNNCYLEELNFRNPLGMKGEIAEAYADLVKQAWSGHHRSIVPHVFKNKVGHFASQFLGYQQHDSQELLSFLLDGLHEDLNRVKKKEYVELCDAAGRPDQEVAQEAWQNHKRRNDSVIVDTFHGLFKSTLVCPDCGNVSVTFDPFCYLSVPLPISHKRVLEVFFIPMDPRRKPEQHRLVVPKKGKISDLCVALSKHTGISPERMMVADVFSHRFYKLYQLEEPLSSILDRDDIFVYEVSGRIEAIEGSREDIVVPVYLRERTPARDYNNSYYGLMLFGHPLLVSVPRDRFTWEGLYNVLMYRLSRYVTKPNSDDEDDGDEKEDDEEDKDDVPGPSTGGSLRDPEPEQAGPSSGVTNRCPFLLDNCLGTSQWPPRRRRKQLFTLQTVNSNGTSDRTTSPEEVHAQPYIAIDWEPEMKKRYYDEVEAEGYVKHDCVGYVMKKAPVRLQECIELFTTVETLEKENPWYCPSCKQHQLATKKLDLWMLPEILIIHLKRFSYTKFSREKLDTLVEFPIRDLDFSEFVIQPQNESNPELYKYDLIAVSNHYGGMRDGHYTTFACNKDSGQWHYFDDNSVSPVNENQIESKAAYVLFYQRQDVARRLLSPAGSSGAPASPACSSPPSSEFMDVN
# These are yes or no findings as the source states them, for the method shown. Binding seen in cells or lysates may run through a third protein. Some results given as binding are weak or reduced against the parent protein; the word gives no strength. For some of these results: Sequences can lack the tags named with a protein.
# T1: Flag-tagged KCTD6, transiently expressed in 293T cells (UniProt Q8NC69)
# T1 sequence: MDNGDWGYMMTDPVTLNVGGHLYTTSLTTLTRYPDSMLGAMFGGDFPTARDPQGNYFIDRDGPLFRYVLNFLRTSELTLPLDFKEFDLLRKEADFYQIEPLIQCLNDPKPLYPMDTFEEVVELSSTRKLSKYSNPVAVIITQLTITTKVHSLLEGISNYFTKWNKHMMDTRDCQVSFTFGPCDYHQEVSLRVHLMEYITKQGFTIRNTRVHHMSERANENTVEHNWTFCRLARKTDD
# T2: Flag-tagged RAE1, transiently expressed in 293T cells (UniProt P78406)
# T2 sequence: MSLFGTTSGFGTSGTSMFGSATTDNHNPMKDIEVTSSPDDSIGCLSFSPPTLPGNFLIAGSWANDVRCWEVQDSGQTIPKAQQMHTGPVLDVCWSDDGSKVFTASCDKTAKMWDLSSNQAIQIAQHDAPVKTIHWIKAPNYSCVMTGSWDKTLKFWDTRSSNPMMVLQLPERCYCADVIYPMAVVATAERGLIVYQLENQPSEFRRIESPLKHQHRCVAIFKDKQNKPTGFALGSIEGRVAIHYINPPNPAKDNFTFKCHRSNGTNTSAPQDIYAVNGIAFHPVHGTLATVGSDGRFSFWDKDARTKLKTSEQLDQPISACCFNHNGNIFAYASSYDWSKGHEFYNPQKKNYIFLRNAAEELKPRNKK
# T3: Flag-tagged SPRYD3, transiently expressed in 293T cells (UniProt Q8NCJ5)
# T3 sequence: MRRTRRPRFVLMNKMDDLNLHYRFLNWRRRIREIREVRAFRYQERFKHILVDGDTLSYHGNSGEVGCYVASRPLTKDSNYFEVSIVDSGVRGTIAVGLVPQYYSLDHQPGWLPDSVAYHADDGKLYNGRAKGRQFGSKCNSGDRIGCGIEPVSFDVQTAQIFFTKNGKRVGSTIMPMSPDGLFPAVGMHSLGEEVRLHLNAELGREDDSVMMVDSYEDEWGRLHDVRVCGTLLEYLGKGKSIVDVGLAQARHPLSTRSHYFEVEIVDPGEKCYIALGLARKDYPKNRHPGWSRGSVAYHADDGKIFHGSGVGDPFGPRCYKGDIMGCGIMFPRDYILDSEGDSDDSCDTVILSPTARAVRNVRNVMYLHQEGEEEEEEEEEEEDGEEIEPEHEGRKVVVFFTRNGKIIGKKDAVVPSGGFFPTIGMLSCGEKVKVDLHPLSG
# T4: RAE1 (form used in the co-precipitation told only in the discussion) (UniProt P78406)
# T4 sequence: T2 sequence
# T5: SPRYD3 (form used in the co-precipitation told only in the discussion) (UniProt Q8NCJ5)
# T5 sequence: T3 sequence
# B1: endogenous RAE1 of 293T cells (protein, UniProt P78406 1-368)
# chain: T2 sequence
# B2: endogenous SPRYD3 of 293T cells (protein, UniProt Q8NCJ5 1-442)
# chain: T3 sequence
# B3: HA-tagged RAE1 (Ribonucleic Acid Export protein 1), transiently expressed in 293T cells (protein, UniProt P78406 1-368)
# chain: T2 sequence
# B4: HA-tagged KCTD6 (potassium channel tetramerization domain containing 6), transiently expressed in 293T cells (protein, UniProt Q8NC69 1-237)
# chain: T1 sequence
# B5: HA-tagged SPRYD3 (SPRY-domain containing protein 3), transiently expressed in 293T cells (protein, UniProt Q8NCJ5 1-442)
# chain: T3 sequence
# B6: KCTD6 (form used in the co-precipitation told only in the discussion) (protein, UniProt Q8NC69 1-237)
# chain: T1 sequence
# Legend:
# [1] = molecular target: Flag-USP7 (Ubiquitin Specific Protease 7), transiently expressed in 293T cells (UniProt Q93009); test: co-IP; 293T cells transiently expressing the Flag-tagged bait (Flag-USP11 or Flag-USP7); Flag-IP; endogenous partners detected by western blot
# [2] = molecular target: T1, Flag-tagged KCTD6, transiently expressed in 293T cells; test: co-IP; 293T cells co-transfected with Flag- and HA-tagged proteins, harvested 36h post-transfection; Flag-IP (anti-Flag agarose, CSK buffer with 0.5% NP40, 4°C, 4h); western blot
# [3] = molecular target: T2, Flag-tagged RAE1, transiently expressed in 293T cells; test: as above
# [4] = molecular target: T3, Flag-tagged SPRYD3, transiently expressed in 293T cells; test: as above
# [5] = molecular target: Flag-tagged USP11, transiently expressed in 293T cells (UniProt P51784); test: co-IP; 293T cells transiently expressing the Flag-tagged bait (Flag-USP11 or Flag-USP7); Flag-IP; endogenous partners detected by western blot
# [6] = molecular target: Flag-tagged USP11, transiently expressed in 293T cells (UniProt P51784); test: co-IP; 293T cells co-transfected with Flag- and HA-tagged proteins, harvested 36h post-transfection; Flag-IP (anti-Flag agarose, CSK buffer with 0.5% NP40, 4°C, 4h); western blot
# [7] = molecular target: PAM (form used in the co-precipitation told only in the discussion) (UniProt O75592); test: co-IP; co-precipitation told only in the discussion, no figure; constructs and cells not told
# [8] = molecular target: T4, RAE1 (form used in the co-precipitation told only in the discussion); test: as above
# [9] = molecular target: T5, SPRYD3 (form used in the co-precipitation told only in the discussion); test: as above
Molecule,binding [1],binding [5],binding [6],further results
endogenous USP11 of 293T cells (from UniProt P51784 1-963) (enzyme),binds,,,
"HA-tagged USP11, transiently expressed in 293T cells (from UniProt P51784 1-963) (enzyme)",,,,binding [2]: binds; binding [3]: binds; binding [4]: binds
endogenous PAM (Protein associated with Myc) of 293T cells (from UniProt O75592 1-4678),binds,binds,,
B1,binds,binds,,
B2,binds,binds,,
B3,,,binds,
B4,,,binds,
B5,,,binds,
B6,,,,binding [7]: no binding; binding [8]: no binding; binding [9]: no binding
